These are yes or no findings as the source states them, for the method shown. In cells and extracts the contact can be indirect. Some results given as binding are weak or reduced against the parent protein; the word gives no strength.
What was measured:
Assay in all cases: co-IP; HEK293T cells co-transfected with SLC9A9 and the partner plasmid, collected 36 h after transfection; lysed in 50 mM Tris-HCl pH 7.4, 1 mM EDTA, 150 mM NaCl, 1% Triton; protein A/G Plus-Agarose and 3 ug antibody, 12 h at 4 C, 5 washes; immunoblot; some samples with amiloride treatment (interaction inhibited)
Esyt1 (mouse) = target: T1, Esyt1 (mouse) (UniProt Q3U7R1)
T1 sequence: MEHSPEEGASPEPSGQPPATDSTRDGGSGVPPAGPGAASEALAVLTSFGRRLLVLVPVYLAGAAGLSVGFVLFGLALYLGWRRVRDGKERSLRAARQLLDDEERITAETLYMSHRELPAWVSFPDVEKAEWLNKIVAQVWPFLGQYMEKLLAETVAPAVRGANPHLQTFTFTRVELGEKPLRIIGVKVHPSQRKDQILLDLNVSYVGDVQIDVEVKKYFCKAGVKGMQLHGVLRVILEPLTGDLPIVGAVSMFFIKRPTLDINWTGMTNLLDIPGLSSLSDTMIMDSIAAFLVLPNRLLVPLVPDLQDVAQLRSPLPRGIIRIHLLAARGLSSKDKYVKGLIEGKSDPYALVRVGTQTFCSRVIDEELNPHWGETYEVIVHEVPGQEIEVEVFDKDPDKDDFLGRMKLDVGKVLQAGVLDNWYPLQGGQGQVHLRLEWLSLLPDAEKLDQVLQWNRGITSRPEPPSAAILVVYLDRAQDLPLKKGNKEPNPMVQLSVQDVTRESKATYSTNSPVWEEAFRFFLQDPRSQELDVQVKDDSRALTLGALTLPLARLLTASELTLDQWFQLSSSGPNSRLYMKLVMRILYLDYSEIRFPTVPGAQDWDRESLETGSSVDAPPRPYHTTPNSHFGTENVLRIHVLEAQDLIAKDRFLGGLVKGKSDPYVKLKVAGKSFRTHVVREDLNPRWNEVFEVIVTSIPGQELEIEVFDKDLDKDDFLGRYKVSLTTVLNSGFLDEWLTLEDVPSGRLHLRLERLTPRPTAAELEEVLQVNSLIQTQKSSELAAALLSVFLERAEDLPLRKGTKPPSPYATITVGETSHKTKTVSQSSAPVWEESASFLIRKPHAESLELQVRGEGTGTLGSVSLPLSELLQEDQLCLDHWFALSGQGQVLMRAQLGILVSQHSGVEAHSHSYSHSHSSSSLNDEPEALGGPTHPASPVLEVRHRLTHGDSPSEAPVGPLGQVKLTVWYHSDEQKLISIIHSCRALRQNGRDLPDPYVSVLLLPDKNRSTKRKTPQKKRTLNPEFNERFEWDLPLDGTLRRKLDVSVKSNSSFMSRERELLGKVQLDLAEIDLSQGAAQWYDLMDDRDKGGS

Stx18 (mouse) = target: T2, Stx18 (mouse) (UniProt Q8VDS8)
T2 sequence: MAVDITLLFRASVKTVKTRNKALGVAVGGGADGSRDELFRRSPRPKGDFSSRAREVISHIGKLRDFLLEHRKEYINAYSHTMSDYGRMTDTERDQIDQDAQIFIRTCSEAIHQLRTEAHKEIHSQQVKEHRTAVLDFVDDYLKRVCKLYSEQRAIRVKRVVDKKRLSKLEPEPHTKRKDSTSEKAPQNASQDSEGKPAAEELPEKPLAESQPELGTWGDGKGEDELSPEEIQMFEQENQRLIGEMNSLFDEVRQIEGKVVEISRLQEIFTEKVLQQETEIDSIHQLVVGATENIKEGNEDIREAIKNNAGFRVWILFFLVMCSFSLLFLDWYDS

Vps16 (mouse) = target: T3, Vps16 (mouse) (UniProt Q920Q4)
T3 sequence: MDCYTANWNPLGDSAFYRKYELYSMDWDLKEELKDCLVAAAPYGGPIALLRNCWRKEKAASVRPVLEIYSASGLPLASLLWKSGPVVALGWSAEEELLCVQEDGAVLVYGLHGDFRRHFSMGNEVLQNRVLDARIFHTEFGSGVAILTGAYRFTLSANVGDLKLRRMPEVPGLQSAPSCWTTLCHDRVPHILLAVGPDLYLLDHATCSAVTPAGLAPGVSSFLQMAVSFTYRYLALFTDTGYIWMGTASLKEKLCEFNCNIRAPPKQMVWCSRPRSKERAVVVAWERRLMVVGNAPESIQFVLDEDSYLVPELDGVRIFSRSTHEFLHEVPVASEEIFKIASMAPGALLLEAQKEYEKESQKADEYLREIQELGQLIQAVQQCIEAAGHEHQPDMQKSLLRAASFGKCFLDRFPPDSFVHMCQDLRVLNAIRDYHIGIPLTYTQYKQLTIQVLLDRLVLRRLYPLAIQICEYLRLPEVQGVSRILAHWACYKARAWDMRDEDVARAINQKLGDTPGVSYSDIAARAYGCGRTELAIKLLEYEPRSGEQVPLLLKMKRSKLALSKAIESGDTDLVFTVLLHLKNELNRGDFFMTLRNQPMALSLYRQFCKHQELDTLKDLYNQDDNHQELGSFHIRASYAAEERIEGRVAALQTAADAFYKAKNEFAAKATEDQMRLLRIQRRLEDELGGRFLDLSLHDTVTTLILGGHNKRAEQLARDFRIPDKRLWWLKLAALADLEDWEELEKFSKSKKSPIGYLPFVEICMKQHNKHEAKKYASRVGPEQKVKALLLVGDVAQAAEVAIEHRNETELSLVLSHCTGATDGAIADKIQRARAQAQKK

binding (Esyt1 (mouse)): binds
binding (Stx18 (mouse)): binds
binding (Vps16 (mouse)): binds
B1: Endosomal solute carrier family 9 member A9 (SLC9A9) (protein, UniProt Q8BZ00 1-644)
chain: MAGQLRFTSGKDEDHFQHQGAVELLAFNFLLILTILTIWLFKNHRFRFLHETGGAMVYGLIMGLILRYATAPTDIDSGTVYNCGNLFFSPSTLLVNITDQVYEYKYQREINQHNISPHQGNAILEKMTFDPEIFFNVLLPPIIFHAGYSLKKRHFFQNLGSILTYAFLGTAISCVVIGLIMYGFVKAMVHAGQLKSGDFHFTDCLFFGSLMSATDPVTVLAIFHELHVDPDLYTLLFGESVLNDAVAIVLTYSISIYSPKENPNAFDTAAFFQSVGNFLGIFAGSFAMGSAYAVVTALLTKFTKLREFPMLETGLFFLLSWSAFLSAEAAGLTGIVAVLFCGVTQAHYTYNNLSSDSKLRTKQLFEFMNFLAENVIFCYMGLALFTFQNHIFNALFILGAFLAIFVARACNIYPLSFLLNLGRKQKIPWNFQHMMMFSGLRGAIAFALAIRNTESQPKQMMFTTTLLLVFFTVWVFGGGTTPMLTWLQIRVGVDLDESLKEEPSSQQEANKLDKNMTKTESAQLFRMWYGFDHKYLKPILTHSGPPLTTTLPAWCGPVSRLLTSPQAYGEQLKEDDVECIVNQDELAMNYQEQSPSPSSPTTKLALDQKSSGQTPGKENIYEGDLGLGGYDLKLEQTRGQPQMD
